# Values joined by “and” are separate entries in the source; they are usually repeats but may differ in a detail not shown here. Equal entries are not always repeated. The list shows a part of the results. Measured with an extract: partners may take part in the binding.
# How the values were obtained:
# Assay in all cases: pull-down
# [1] = target: LIG3 (Homo sapiens) (UniProt P49916); details: 150 mM NaCl, 50 mM Tris pH 8.0, 0.25% NP-40, 1 mM DTT, 4 C, 2 h, 100 ug nuclear extract, double strand, one strand shown
# UniProt P49916, sequence (P49916 whole entry): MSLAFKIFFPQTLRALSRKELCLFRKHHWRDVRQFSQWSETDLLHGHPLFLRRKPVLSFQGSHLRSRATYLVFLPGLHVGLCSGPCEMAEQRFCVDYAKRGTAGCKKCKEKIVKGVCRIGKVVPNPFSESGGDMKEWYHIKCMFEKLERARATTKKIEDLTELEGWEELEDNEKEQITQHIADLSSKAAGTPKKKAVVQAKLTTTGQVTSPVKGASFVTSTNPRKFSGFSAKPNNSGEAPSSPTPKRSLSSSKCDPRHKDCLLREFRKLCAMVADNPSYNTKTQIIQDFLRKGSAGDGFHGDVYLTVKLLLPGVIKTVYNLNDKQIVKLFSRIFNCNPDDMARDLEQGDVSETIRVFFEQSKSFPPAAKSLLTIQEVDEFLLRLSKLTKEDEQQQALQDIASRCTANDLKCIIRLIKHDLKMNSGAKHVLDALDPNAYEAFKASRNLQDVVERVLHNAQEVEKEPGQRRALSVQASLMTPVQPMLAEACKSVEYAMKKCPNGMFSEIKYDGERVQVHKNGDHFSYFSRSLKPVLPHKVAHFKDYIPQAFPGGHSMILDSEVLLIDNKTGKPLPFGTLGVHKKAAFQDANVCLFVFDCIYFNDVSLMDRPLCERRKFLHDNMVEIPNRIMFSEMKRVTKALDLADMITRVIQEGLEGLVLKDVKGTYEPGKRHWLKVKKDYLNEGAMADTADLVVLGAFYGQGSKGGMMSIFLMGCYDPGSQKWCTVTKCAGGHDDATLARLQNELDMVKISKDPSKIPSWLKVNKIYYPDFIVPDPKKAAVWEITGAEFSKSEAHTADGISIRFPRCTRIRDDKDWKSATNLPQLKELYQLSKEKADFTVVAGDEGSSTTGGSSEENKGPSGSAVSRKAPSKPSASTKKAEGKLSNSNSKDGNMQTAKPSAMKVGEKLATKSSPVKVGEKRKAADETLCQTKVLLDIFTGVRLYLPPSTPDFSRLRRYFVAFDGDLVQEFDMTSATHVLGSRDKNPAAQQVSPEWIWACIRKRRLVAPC
# [2] = target: PARP1 (Homo sapiens) (UniProt P09874); details: 150 mM NaCl, 50 mM Tris pH 8.0, 0.25% NP-40, 1 mM DTT, 4 C, 2 h, 100 ug nuclear extract, double strand, one strand shown
# UniProt P09874, sequence (P09874 whole entry): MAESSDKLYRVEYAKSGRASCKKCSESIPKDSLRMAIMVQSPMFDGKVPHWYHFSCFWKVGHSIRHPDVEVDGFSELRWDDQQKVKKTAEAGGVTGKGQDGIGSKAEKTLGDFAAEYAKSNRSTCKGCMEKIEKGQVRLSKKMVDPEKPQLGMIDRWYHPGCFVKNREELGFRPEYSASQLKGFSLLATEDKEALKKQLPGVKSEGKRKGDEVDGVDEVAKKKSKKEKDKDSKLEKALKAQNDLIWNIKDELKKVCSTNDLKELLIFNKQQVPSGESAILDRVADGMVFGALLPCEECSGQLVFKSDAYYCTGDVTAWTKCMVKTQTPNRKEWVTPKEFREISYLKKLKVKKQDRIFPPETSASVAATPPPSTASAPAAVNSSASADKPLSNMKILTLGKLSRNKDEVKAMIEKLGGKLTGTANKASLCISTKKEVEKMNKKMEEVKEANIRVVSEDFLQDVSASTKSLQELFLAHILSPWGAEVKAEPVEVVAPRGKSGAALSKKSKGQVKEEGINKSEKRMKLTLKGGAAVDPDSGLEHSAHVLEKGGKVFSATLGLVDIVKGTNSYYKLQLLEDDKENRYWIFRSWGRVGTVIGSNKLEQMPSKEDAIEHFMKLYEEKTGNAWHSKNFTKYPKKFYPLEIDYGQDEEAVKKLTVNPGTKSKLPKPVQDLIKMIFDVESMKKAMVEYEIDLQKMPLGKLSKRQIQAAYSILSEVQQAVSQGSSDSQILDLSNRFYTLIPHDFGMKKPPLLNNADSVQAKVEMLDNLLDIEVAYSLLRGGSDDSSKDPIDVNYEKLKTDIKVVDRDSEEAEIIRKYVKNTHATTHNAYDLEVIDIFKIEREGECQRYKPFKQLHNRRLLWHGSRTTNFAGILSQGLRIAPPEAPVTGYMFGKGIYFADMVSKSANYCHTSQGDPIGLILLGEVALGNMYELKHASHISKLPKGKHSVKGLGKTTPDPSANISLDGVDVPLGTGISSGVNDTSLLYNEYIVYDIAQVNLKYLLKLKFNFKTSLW
# [3] = target: KMT2A (Homo sapiens) (UniProt Q03164); details: 150 mM NaCl, 50 mM Tris pH 8.0, 0.25% NP-40, 1 mM DTT; 4 C, 2 h; 100 ug nuclear extract; double strand, one strand shown
# [4] = target: L3MBTL3 (Homo sapiens) (UniProt Q96JM7); details: 150 mM NaCl, 50 mM Tris pH 8.0, 0.25% NP-40, 1 mM DTT; 4 C, 2 h; 100 ug nuclear extract; double strand, one strand shown
# UniProt Q96JM7, sequence (Q96JM7 whole entry): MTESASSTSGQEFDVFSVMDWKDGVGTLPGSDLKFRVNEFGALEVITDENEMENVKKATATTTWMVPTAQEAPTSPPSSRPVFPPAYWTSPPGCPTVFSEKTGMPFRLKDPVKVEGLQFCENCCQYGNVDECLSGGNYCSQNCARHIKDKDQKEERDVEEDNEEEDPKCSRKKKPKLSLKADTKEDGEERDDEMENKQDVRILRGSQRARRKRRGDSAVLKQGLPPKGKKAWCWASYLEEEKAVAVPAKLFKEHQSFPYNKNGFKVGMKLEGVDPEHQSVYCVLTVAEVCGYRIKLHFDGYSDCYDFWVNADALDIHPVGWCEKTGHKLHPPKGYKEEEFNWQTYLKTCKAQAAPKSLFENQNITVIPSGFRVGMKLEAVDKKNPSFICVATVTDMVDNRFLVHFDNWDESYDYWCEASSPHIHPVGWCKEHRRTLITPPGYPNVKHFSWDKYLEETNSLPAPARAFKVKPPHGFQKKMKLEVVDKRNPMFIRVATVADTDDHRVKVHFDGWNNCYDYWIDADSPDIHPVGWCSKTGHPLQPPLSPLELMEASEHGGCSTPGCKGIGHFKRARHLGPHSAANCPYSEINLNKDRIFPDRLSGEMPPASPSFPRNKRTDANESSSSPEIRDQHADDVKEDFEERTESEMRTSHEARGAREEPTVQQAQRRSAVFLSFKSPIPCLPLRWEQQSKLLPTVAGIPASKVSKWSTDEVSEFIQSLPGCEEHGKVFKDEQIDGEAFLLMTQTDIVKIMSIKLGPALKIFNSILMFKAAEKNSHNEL
# [5] = target: MSH2 (Homo sapiens) (UniProt P43246); details: 150 mM NaCl, 50 mM Tris pH 8.0, 0.25% NP-40, 1 mM DTT, 4 C, 2 h, 100 ug nuclear extract, double strand, one strand shown
# UniProt P43246, sequence (P43246 whole entry): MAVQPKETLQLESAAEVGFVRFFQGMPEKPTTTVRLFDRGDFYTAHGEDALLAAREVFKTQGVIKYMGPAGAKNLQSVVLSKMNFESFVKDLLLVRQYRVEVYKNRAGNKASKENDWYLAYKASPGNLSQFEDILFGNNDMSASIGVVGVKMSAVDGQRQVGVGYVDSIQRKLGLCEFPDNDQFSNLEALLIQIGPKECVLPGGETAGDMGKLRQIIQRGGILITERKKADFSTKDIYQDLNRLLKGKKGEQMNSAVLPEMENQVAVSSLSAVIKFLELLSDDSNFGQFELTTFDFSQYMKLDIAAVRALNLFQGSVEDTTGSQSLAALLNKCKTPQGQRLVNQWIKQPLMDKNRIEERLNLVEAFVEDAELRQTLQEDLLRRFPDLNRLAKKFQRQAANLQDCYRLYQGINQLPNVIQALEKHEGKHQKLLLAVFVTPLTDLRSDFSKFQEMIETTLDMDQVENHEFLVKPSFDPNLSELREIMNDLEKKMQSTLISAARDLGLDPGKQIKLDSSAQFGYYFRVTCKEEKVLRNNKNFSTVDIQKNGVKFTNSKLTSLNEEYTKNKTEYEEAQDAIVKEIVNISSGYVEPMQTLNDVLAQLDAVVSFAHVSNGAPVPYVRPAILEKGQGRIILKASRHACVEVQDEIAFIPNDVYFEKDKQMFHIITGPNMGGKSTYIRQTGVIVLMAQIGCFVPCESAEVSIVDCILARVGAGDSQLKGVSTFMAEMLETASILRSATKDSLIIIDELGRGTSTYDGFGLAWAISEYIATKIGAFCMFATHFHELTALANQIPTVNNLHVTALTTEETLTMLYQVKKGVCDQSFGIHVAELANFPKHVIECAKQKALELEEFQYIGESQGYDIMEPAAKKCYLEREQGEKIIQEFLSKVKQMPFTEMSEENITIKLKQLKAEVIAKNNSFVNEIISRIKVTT
# [6] = target: MSH3 (Homo sapiens) (UniProt P20585); details: 150 mM NaCl, 50 mM Tris pH 8.0, 0.25% NP-40, 1 mM DTT, 4 C, 2 h, 100 ug nuclear extract, double strand, one strand shown
# UniProt P20585, sequence (P20585 whole entry): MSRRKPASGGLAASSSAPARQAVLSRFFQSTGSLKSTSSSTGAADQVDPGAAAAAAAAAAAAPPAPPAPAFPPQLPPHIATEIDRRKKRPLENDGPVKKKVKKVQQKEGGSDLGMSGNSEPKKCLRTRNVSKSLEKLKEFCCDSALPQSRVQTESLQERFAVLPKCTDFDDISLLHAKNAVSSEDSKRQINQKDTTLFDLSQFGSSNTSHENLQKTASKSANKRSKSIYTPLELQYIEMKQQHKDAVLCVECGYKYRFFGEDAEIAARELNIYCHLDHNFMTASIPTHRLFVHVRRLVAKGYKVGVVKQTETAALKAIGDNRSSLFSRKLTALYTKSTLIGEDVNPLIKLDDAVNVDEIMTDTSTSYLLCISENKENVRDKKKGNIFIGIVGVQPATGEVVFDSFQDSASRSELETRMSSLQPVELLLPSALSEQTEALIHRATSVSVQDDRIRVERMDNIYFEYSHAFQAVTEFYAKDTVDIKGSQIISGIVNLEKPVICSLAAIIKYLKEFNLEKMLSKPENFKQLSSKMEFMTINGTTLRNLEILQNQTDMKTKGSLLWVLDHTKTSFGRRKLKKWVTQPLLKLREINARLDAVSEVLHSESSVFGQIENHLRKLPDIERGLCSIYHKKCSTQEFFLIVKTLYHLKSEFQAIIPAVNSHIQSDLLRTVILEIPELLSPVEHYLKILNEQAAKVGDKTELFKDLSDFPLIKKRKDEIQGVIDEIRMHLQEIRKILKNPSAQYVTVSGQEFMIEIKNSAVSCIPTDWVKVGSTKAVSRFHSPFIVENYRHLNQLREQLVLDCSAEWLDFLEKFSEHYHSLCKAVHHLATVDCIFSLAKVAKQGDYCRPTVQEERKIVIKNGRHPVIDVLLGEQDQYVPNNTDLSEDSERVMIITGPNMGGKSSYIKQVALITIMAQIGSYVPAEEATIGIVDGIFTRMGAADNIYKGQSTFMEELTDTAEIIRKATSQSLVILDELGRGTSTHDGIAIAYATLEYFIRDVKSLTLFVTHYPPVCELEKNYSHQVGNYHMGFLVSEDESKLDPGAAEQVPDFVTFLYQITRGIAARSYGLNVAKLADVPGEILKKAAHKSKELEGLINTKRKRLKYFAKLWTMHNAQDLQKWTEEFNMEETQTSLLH
# [7] = target: T1, MYBBP1A (Homo sapiens) (UniProt Q9BQG0); details: 150 mM NaCl, 50 mM Tris pH 8.0, 0.25% NP-40, 1 mM DTT; 4 C, 2 h; 100 ug nuclear extract; double strand, one strand shown
# T1 sequence: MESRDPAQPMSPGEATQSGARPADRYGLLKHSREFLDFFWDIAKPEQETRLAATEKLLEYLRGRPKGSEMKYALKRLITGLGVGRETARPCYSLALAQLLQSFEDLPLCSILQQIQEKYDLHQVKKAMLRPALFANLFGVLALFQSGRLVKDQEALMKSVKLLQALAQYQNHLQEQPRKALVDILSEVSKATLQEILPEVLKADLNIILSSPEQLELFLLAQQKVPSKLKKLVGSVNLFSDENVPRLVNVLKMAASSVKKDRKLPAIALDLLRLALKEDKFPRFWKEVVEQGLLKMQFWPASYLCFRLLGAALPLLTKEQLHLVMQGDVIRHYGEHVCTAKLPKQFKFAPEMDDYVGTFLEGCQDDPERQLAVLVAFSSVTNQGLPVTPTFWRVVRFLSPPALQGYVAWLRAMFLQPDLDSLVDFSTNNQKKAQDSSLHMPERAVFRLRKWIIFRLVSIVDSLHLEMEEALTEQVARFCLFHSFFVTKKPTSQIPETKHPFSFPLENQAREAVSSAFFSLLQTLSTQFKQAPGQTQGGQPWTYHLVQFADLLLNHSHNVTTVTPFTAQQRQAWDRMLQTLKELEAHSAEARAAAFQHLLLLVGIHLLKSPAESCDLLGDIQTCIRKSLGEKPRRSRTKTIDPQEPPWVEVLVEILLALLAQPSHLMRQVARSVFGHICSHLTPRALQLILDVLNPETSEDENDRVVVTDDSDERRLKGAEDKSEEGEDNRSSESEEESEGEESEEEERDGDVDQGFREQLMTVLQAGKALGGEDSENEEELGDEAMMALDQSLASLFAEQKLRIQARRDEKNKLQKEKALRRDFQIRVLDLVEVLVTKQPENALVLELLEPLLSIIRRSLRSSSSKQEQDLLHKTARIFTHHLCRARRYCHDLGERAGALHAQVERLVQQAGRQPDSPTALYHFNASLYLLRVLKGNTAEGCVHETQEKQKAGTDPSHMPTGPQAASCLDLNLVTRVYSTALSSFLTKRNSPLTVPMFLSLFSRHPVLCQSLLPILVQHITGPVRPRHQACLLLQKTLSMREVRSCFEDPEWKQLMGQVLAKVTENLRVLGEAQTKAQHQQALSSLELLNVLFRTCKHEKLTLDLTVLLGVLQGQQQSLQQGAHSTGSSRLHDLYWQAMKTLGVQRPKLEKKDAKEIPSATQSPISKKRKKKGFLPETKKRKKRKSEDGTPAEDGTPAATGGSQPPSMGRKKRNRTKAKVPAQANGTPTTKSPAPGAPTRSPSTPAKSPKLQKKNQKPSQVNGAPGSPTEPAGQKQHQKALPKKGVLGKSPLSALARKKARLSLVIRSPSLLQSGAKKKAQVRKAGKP
# [8] = target: T2, PCGF1 (Homo sapiens) (UniProt Q9BSM1); details: 150 mM NaCl, 50 mM Tris pH 8.0, 0.25% NP-40, 1 mM DTT; 4 C, 2 h; 100 ug nuclear extract; double strand, one strand shown
# T2 sequence: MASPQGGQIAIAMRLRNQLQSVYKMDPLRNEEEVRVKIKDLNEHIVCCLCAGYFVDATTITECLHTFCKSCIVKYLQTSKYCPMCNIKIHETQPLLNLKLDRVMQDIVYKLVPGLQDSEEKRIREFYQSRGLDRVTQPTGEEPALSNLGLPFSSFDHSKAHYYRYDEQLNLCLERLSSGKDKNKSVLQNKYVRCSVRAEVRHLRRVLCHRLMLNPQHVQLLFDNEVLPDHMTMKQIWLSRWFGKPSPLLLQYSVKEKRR
# [9] = target: KPNA2 (Homo sapiens) (UniProt P52292); details: 150 mM NaCl, 50 mM Tris pH 8.0, 0.25% NP-40, 1 mM DTT; 4 C, 2 h; 100 ug nuclear extract; double strand, one strand shown
# [10] = target: T3, MLXIP (UniProt Q9HAP2); details: 150 mM NaCl, 50 mM Tris pH 8.0, 0.25% NP-40, 1 mM DTT; 4 C, 2 h; 100 ug nuclear extract; double strand, one strand shown
# T3 sequence: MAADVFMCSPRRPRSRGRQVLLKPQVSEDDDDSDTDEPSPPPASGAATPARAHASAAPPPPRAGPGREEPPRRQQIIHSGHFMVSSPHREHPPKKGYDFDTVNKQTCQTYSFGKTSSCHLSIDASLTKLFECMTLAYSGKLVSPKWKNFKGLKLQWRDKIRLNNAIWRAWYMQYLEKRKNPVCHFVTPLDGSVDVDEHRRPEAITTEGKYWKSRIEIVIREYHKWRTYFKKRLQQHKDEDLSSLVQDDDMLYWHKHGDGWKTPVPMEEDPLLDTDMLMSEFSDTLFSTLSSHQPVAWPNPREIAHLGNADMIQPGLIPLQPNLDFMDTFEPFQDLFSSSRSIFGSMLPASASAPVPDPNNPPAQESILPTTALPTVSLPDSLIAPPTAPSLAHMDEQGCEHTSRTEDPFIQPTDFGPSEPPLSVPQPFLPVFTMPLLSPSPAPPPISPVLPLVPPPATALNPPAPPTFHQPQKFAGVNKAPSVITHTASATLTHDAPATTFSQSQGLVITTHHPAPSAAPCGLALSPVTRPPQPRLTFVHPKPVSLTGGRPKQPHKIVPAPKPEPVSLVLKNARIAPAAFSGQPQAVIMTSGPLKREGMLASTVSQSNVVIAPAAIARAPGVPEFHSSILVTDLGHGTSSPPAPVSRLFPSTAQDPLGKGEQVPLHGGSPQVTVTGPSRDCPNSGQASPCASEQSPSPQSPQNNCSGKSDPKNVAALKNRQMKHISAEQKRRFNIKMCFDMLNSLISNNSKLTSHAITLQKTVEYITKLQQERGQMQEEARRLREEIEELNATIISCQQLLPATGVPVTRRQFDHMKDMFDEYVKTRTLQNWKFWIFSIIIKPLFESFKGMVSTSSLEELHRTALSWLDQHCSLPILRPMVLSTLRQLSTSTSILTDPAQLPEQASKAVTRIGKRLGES
# [11] = 5mC at 15,17 (strand 1), 5mC at 14,16 (strand 2)
sequence,measurement,setting,value
GAGAGAAAATAAAACTGGCT [SP/KLF negative control bait],half-maximal binding,[1],500 nM
same,half-maximal binding,[2],126 nM
GAGAGCCCCGCCCCCTGGCT [SP/KLF bait],half-maximal binding,[1],524 nM
same,half-maximal binding,[2],137 nM
GCCGCCGCCCTTCTCGCGAGACTGCCGGGCC [CGCG bait],half-maximal binding,[3],221 nM
same,half-maximal binding,[4],356 nM
same,half-maximal binding,[1],374 nM and 122 nM
same,half-maximal binding,[5],161 nM
same,half-maximal binding,[6],167 nM and 299 nM
same,half-maximal binding,[7],388 nM
same,half-maximal binding,[2],401 nM and 43.8 nM
same,half-maximal binding,[8],63.7 nM
GCCGCCGCCCTCCCACGCGCTGCCGGGCC [BEND3 bait],half-maximal binding,[9],74.7 nM
same,half-maximal binding,[1],147 nM
same,half-maximal binding,[10],244 nM
same,half-maximal binding,[5],122 nM
same,half-maximal binding,[6],139 nM
same,half-maximal binding,[2],117 nM
same,half-maximal binding,[8],438 nM
GCCGCCGCCCTTCTCGCGAGACTGCCGGGCC [methylated CGCG bait],half-maximal binding,[1]; [11],120 nM
same,half-maximal binding,[5]; [11],123 nM
same,half-maximal binding,[6]; [11],141 nM
same,half-maximal binding,[2]; [11],43 nM

# — paper PMC10407929
